Sequences with one replicate were seen in a single cluster, so their values are uncertain.
Test system: ATP
Experiment: switch fluorescence ratio, 500 uM ATP over buffer (Cy3 cluster intensity, sum of 5 cycles each) (fold (ratio)); higher = stronger signal-on switching upon ATP binding; sequences stand for … in TCGTCGGCAGCGTCAGATGTGTATAAGAGACAGTTTTTTTTTTTTTTTTTTTTTTTTT…TC
Details: aptamer strand: ATP DNA aptamer (quencher-CACCTGGGGGAGTATTGCGGAGGAAGG + anchor), 100 nM annealed; ATP concentration: 500 uM; one replicate
Method in brief: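 The fluorescence ratio divides summed target-cycle Cy3 intensity by summed buffer-cycle Cy3 intensity for each cluster and is averaged per switch-domain sequence. Cy3-labelled switching-strand clusters on a modified Illumina MiSeq flow-cell were annealed to 100 nM quencher-labelled ATP aptamer, then imaged in selection buffer and again after 15 min with 500 uM ATP at 22 °C. Five such cycles were run, with NaOH stripping and re-annealing between them, and clusters outside 100-1000 RFU were excluded.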
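Further: ATP exposure 15 min at 22 °C before imaging.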

TGTGGGGGCC
switch fluorescence ratio: 0.994

TTTTCCCCGC
switch fluorescence ratio: 1.65

ACATAAGGGG
switch fluorescence ratio: 2.48

TAGAAAGGA
switch fluorescence ratio: 0.982

TCATTCGTTG
switch fluorescence ratio: 1.01

CCACGTCAGC
switch fluorescence ratio: 1.17

TCCCTTAAAG
switch fluorescence ratio: 0.991

GTAGATTGGG
switch fluorescence ratio: 0.979

GAAGTGCGGC
switch fluorescence ratio: 1.05

TCCTATCCGG
switch fluorescence ratio: 1.05

AAGGGGTCAA
switch fluorescence ratio: 1.05

CGCATACAGT
switch fluorescence ratio: 1.63

AATTCTCGCT
switch fluorescence ratio: 0.985

AGTCGTGCAT
switch fluorescence ratio: 1.05

CCTAAAGCTC
switch fluorescence ratio: 1.29

CTATCGGGGG
switch fluorescence ratio: 1.04

TGGGAATGG
switch fluorescence ratio: 1.02

ACCTGCAAGA
switch fluorescence ratio: 1.77

CTAGGCTTAG
switch fluorescence ratio: 0.996

GCTAGAGGTT
switch fluorescence ratio: 0.981

TCGGCAGGGT
switch fluorescence ratio: 1.02

CAGAAAGG
switch fluorescence ratio: 1.02

GGGTGTTGT
switch fluorescence ratio: 0.949

CGAGGGTTAA
switch fluorescence ratio: 1.08

GGAACCTGTG
switch fluorescence ratio: 1.02

GTAATTGACG
switch fluorescence ratio: 1.03

ATAAGATCCC
switch fluorescence ratio: 1

TCTAGCGCGA
switch fluorescence ratio: 1.28

AGAATGGAAG
switch fluorescence ratio: 0.996

TCCGGTG
switch fluorescence ratio: 1.86

CCCTAGG
switch fluorescence ratio: 2.5

CTTGTGTCTG
switch fluorescence ratio: 1.01

GAGATAGCGG
switch fluorescence ratio: 1

CAAGGTCAAT
switch fluorescence ratio: 1.04

GAGGTGCCCG
switch fluorescence ratio: 0.966

ATTAGCCCAG
switch fluorescence ratio: 1.01

TTTAATAGC
switch fluorescence ratio: 0.964

ACAGTCTGTA
switch fluorescence ratio: 1.04

TTAAGAGGGC
switch fluorescence ratio: 1.07

ATAAGCCATC
switch fluorescence ratio: 1.07

TATCATTATA
switch fluorescence ratio: 1

TTTGTTCAC
switch fluorescence ratio: 0.992

CACAGTCTAA
switch fluorescence ratio: 0.982

CATCTAAATA
switch fluorescence ratio: 1.44

CAGGCAGGAA
switch fluorescence ratio: 0.98

AGTCGTAAGA
switch fluorescence ratio: 0.998

GGCCGTCGTC
switch fluorescence ratio: 0.979

ACGATAGGCT
switch fluorescence ratio: 1.04

CGTGCGTGAT
switch fluorescence ratio: 1.13

TATCGGATCG
switch fluorescence ratio: 0.963

TCGAACGAGA
switch fluorescence ratio: 1.01

AGAGGGATGA
switch fluorescence ratio: 1.01

AACCTACAT
switch fluorescence ratio: 1.16

TGTCTGCCGC
switch fluorescence ratio: 1.08

TGCGAATGGC
switch fluorescence ratio: 1.06

TCAAAGCAGG
switch fluorescence ratio: 1.08

GAGCATAATC
switch fluorescence ratio: 1.26

TTCGGGTTG
switch fluorescence ratio: 0.989

GGAGCTGTTA
switch fluorescence ratio: 1.01

CGCTTAATGA
switch fluorescence ratio: 1.11

AAGGGATCCT
switch fluorescence ratio: 1.06

TGATCTGATA
switch fluorescence ratio: 1.02

CAGAATAAGT
switch fluorescence ratio: 1.01

ACTGACAGGG
switch fluorescence ratio: 0.956

CATATCTTGG
switch fluorescence ratio: 1.02

GTGGGTTGG
switch fluorescence ratio: 0.98

ATGTTGGAGC
switch fluorescence ratio: 0.994

CGCATAAAGA
switch fluorescence ratio: 1.04

CATGCCCGGG
switch fluorescence ratio: 1.02

CTATGATGCT
switch fluorescence ratio: 1

AGCACGAATC
switch fluorescence ratio: 1.06

CTACTGGGTT
switch fluorescence ratio: 0.99

ACCCGAATTG
switch fluorescence ratio: 1.04

AACTCTGGTG
switch fluorescence ratio: 1.17

AAAAGCATTT
switch fluorescence ratio: 1.02

GAGAGGATAT
switch fluorescence ratio: 0.962

ACGACAAGGG
switch fluorescence ratio: 1.08

TCGCTGGACA
switch fluorescence ratio: 0.975

CTCGTTCCTC
switch fluorescence ratio: 1.38

TGGAAAGGT
switch fluorescence ratio: 0.959

TATGGCTCGA
switch fluorescence ratio: 1.01

ACCGAATACG
switch fluorescence ratio: 1.53

TTTAAGGAAG
switch fluorescence ratio: 1

ATGCTACCAG
switch fluorescence ratio: 1.04

GGGAGCGACG
switch fluorescence ratio: 0.971

AGAGGCATGC
switch fluorescence ratio: 0.985

GAGTCGCAGG
switch fluorescence ratio: 0.997

AGGGCGGAAG
switch fluorescence ratio: 0.965

ATGAAGCAGT
switch fluorescence ratio: 1.44

TGCTCAAGTA
switch fluorescence ratio: 0.985

CTCGAACACT
switch fluorescence ratio: 1.06

ATAATACTAT
switch fluorescence ratio: 1

GGCAGGAGTG
switch fluorescence ratio: 1.01

GTGGTTTGCA
switch fluorescence ratio: 0.987

TTTGCTAGGG
switch fluorescence ratio: 0.955

CGAAAGGAGC
switch fluorescence ratio: 1.04

ACAACGCCCA
switch fluorescence ratio: 1.56

GCAGGCACGT
switch fluorescence ratio: 1

CATAGGGGTC
switch fluorescence ratio: 0.944

ATTCCTAGCG
switch fluorescence ratio: 1.08

GGCTTCTCGT
switch fluorescence ratio: 1.02

CGATCTTTA
switch fluorescence ratio: 0.999

TCCTCGCCGG
switch fluorescence ratio: 1.11

AACTCTGGCG
switch fluorescence ratio: 1.02

AAATGGGTGC
switch fluorescence ratio: 0.966

TAAGCTGGGT
switch fluorescence ratio: 1.03

TGCCAGTGC
switch fluorescence ratio: 2.15

GCCTACAGCC
switch fluorescence ratio: 1.01

ACAATTGCCA
switch fluorescence ratio: 0.972

GGCGGAGGGC
switch fluorescence ratio: 0.945

AATGTGAGG
switch fluorescence ratio: 1

CCCCAATTAG
switch fluorescence ratio: 1.23

ACTTGTGCTC
switch fluorescence ratio: 0.998

CGACTCTGAG
switch fluorescence ratio: 0.992

ATAGGCTGGG
switch fluorescence ratio: 1.03

TTTTAAGTAA
switch fluorescence ratio: 1.23

AAAAGCCTGA
switch fluorescence ratio: 1.06

TCCTAATCTA
switch fluorescence ratio: 0.959

TCGCAATTTG
switch fluorescence ratio: 2.33

TTGGCGCGCG
switch fluorescence ratio: 0.979

TCTGGTATAG
switch fluorescence ratio: 1.02

TGTAGGCCTA
switch fluorescence ratio: 1.01

AACGCCCCGC
switch fluorescence ratio: 1.08

TGCATATTTC
switch fluorescence ratio: 1.05

GATGTCGCGG
switch fluorescence ratio: 0.997

ATCTTTGTGC
switch fluorescence ratio: 1.02

GACGTGAAGA
switch fluorescence ratio: 1.04

TAGTATACAC
switch fluorescence ratio: 1.01

CCTAGGCTAG
switch fluorescence ratio: 1.13

AGTAGTTATG
switch fluorescence ratio: 0.962

TTACAATAGA
switch fluorescence ratio: 0.978

TAGCTATTGA
switch fluorescence ratio: 1.03

TCGTTACACT
switch fluorescence ratio: 1.1

CCCCCGCGTT
switch fluorescence ratio: 6.57

GGAAATTTAG
switch fluorescence ratio: 1.01

AGCAGCAGG
switch fluorescence ratio: 1.04

ACTTGATAA
switch fluorescence ratio: 1.01

AGGGACCGAT
switch fluorescence ratio: 0.986

TCCAAGAGTG
switch fluorescence ratio: 1.07

AAAGAGATGT
switch fluorescence ratio: 0.979

TCCGCTTCGT
switch fluorescence ratio: 1.24

TATAAAGATT
switch fluorescence ratio: 1

ATGCAAGTGC
switch fluorescence ratio: 1.2

CCTGGGTTGT
switch fluorescence ratio: 1.15

TACTTGTTG
switch fluorescence ratio: 0.962

GACAAAAAAT
switch fluorescence ratio: 0.93

TTCAGTCGTT
switch fluorescence ratio: 0.974

GCGATGTTTC
switch fluorescence ratio: 1.1

CGGGCCAAGA
switch fluorescence ratio: 1.01

GAAGTCAGGA
switch fluorescence ratio: 0.987

ACGAACGGGA
switch fluorescence ratio: 1.38

CTATAGCATG
switch fluorescence ratio: 1.12

TTTTACT
switch fluorescence ratio: 1.03

AGTTACTGAA
switch fluorescence ratio: 1.06

CCGGGCCACT
switch fluorescence ratio: 1.06

GAACTATTTT
switch fluorescence ratio: 1.02

CTAGCTATTG
switch fluorescence ratio: 1.06

CACGTGGAAG
switch fluorescence ratio: 1.01
